Our source for the binding signal values is article PMC9911399, “Two distinct binding modes provide the RNA-binding protein RbFox with extraordinary sequence specificity”.

Positions count from the first letter of the chain named. This is one part of the list.

T1: RBFOX1 RRM (Homo sapiens, UniProt Q9NWB1 109-208)
T1 sequence: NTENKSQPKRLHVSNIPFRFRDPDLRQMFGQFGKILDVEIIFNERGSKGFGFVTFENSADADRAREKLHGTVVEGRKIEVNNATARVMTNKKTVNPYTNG

B1: UCGAAGG (DNA:RNA)
RNA: GGGAGACCGGAAUUCAGAUUGUCCUCGAAGGUUAAAUCCCGUCGUAGCCACCA
DNA 1: CAATCTGAATTCCGGTCTCCC
DNA 2: TGGTGGCTACGACGGGATT
B2: AGUUGAC (DNA:RNA)
RNA: GGGAGACCGGAAUUCAGAUUGUCCAGUUGACUUAAAUCCCGUCGUAGCCACCA
DNA 1: CAATCTGAATTCCGGTCTCCC
DNA 2: TGGTGGCTACGACGGGATT
B3: CCAAAUA (DNA:RNA)
RNA: B1 RNA with U25C, G27A, G30U, G31A
DNA 1: CAATCTGAATTCCGGTCTCCC
DNA 2: TGGTGGCTACGACGGGATT
B4: CGCUGGA (DNA:RNA)
RNA: B2 RNA with A25C, U27C, A30G, C31A
DNA 1: CAATCTGAATTCCGGTCTCCC
DNA 2: TGGTGGCTACGACGGGATT
B5: GGACUGA (DNA:RNA)
RNA: B2 RNA with A25G, U27A, U28C, G29U, A30G, C31A
DNA 1: CAATCTGAATTCCGGTCTCCC
DNA 2: TGGTGGCTACGACGGGATT
B6: GUUCCAA (DNA:RNA)
RNA: B2 RNA with A25G, G26U, U28C, G29C, C31A
DNA 1: CAATCTGAATTCCGGTCTCCC
DNA 2: TGGTGGCTACGACGGGATT
B7: UGAGGAC (DNA:RNA)
RNA: B2 RNA with A25U, U27A, U28G
DNA 1: CAATCTGAATTCCGGTCTCCC
DNA 2: TGGTGGCTACGACGGGATT
B8: CCACCGA (DNA:RNA)
RNA: B1 RNA with U25C, G27A, A28C, A29C, G31A
DNA 1: CAATCTGAATTCCGGTCTCCC
DNA 2: TGGTGGCTACGACGGGATT
B9: GUAACUG (DNA:RNA)
RNA: B1 RNA with U25G, C26U, G27A, A29C, G30U
DNA 1: CAATCTGAATTCCGGTCTCCC
DNA 2: TGGTGGCTACGACGGGATT
B10: UACCCUU (DNA:RNA)
RNA: B1 RNA with C26A, G27C, A28C, A29C, G30U, G31U
DNA 1: CAATCTGAATTCCGGTCTCCC
DNA 2: TGGTGGCTACGACGGGATT
B11: CUUUAUA (DNA:RNA)
RNA: B2 RNA with A25C, G26U, G29A, A30U, C31A
DNA 1: CAATCTGAATTCCGGTCTCCC
DNA 2: TGGTGGCTACGACGGGATT
B12: GCCUACC (DNA:RNA)
RNA: B2 RNA with A25G, G26C, U27C, G29A, A30C
DNA 1: CAATCTGAATTCCGGTCTCCC
DNA 2: TGGTGGCTACGACGGGATT
B13: GGGCGUG (DNA:RNA)
RNA: B2 RNA with A25G, U27G, U28C, A30U, C31G
DNA 1: CAATCTGAATTCCGGTCTCCC
DNA 2: TGGTGGCTACGACGGGATT
B14: AGUGUCA (DNA:RNA)
RNA: B2 RNA with U28G, G29U, A30C, C31A
DNA 1: CAATCTGAATTCCGGTCTCCC
DNA 2: TGGTGGCTACGACGGGATT
B15: GUGAAGC (DNA:RNA)
RNA: B1 RNA with U25G, C26U, G31C
DNA 1: CAATCTGAATTCCGGTCTCCC
DNA 2: TGGTGGCTACGACGGGATT
B16: AUACACA (DNA:RNA)
RNA: B2 RNA with G26U, U27A, U28C, G29A, A30C, C31A
DNA 1: CAATCTGAATTCCGGTCTCCC
DNA 2: TGGTGGCTACGACGGGATT
B17: CUAUACC (DNA:RNA)
RNA: B2 RNA with A25C, G26U, U27A, G29A, A30C
DNA 1: CAATCTGAATTCCGGTCTCCC
DNA 2: TGGTGGCTACGACGGGATT
B18: GGUGCAU (DNA:RNA)
RNA: B2 RNA with A25G, U28G, G29C, C31U
DNA 1: CAATCTGAATTCCGGTCTCCC
DNA 2: TGGTGGCTACGACGGGATT
B19: CAGGGAU (DNA:RNA)
RNA: B2 RNA with A25C, G26A, U27G, U28G, C31U
DNA 1: CAATCTGAATTCCGGTCTCCC
DNA 2: TGGTGGCTACGACGGGATT
B20: AUGUCGU (DNA:RNA)
RNA: B2 RNA with G26U, U27G, G29C, A30G, C31U
DNA 1: CAATCTGAATTCCGGTCTCCC
DNA 2: TGGTGGCTACGACGGGATT

The target of this experiment is T1, RBFOX1 RRM. Put plainly: EMSA; HiTS-Eq, 1 nM pool, 10 min; buffer printed only for the single-RNA assays: 10 mM Tris pH 7.5, 150 mM NaCl, 3.4 mM EDTA, 0.001% NP-40, 30 C. Conditions: tags: His6 N-terminal (pET28a); label: 5' 32P. In short, it runs like this: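 Purified RbFox RRM, wild type or mutant, was incubated for 10 min in 50 µL with 1 nM of a 5′-radiolabelled RNA pool carrying 7 randomized nucleotides, whose flanks were annealed to DNA oligonucleotides, over a series of increasing protein concentrations. Unbound RNA was resolved on 8% native PAGE, cut out, reverse-transcribed, barcoded by PCR and sequenced on an Illumina HiSeq 2500. Relative association constants were derived from changes in read counts for each RNA species versus the control reaction and normalised to the cognate motif.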
Regarding B1, the binding signal is 0.0124 KA relative to UGCAUGU. The figure for B2 is 0.015 KA relative to UGCAUGU; for B3 it is 0.000528 KA relative to UGCAUGU; for B4 it is 0.00997 KA relative to UGCAUGU. The figure for B5 is 0.0188 KA relative to UGCAUGU; for B6 it is 0.0057 KA relative to UGCAUGU. With B7 the figure was 0.00296 KA relative to UGCAUGU; with B8, 0.0121 KA relative to UGCAUGU; with B9, 0.0131 KA relative to UGCAUGU. As for B10, the binding signal is 0.00183 KA relative to UGCAUGU. The figure for B11 is 0.00365 KA relative to UGCAUGU; for B12 it is 0.00684 KA relative to UGCAUGU. On to B13, for which the binding signal is 0.0291 KA relative to UGCAUGU. As to B14, the binding signal is 0.00991 KA relative to UGCAUGU.

B15: the binding signal is 0.0118 KA relative to UGCAUGU. As for B16, the binding signal was 0.000269 KA relative to UGCAUGU. In the case of B17, the binding signal was 0.00079 KA relative to UGCAUGU. Consider B18, for which the binding signal was 0.0241 KA relative to UGCAUGU. The figure for B19 is 0.0133 KA relative to UGCAUGU; for B20 it is 0.0142 KA relative to UGCAUGU.
